What was measured:
Test in all cases: SPR
C3b = C3b (human, UniProt P01024)
C3 = C3 (human, UniProt P01024)
C3c = C3c (human, UniProt P01024)
Sequence of C3c (P01024 23-667, chain 1 of 3): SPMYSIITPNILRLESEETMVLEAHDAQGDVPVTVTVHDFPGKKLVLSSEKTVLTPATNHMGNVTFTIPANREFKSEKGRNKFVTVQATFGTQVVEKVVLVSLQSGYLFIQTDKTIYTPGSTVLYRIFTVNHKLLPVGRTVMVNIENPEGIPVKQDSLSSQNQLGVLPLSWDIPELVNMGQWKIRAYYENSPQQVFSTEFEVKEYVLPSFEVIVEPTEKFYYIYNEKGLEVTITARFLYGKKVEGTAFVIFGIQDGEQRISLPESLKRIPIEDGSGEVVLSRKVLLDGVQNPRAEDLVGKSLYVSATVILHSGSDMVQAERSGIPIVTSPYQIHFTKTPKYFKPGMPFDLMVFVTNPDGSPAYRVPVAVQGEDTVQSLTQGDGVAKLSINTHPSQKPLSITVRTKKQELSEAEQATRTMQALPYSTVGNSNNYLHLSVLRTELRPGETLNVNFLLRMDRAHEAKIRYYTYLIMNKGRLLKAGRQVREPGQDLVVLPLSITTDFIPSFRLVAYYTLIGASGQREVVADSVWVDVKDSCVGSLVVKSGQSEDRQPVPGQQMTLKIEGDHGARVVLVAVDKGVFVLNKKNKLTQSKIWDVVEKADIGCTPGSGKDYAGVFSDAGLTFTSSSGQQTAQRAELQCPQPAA
Sequence of C3c (P01024 749-954, chain 2 of 3): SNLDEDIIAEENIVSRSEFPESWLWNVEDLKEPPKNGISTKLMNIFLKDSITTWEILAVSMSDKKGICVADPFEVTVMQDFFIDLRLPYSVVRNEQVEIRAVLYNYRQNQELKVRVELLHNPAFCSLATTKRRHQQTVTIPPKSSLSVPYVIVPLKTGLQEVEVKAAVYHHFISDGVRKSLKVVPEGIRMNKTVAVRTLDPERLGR
Sequence of C3c (P01024 1321-1663, chain 3 of 3): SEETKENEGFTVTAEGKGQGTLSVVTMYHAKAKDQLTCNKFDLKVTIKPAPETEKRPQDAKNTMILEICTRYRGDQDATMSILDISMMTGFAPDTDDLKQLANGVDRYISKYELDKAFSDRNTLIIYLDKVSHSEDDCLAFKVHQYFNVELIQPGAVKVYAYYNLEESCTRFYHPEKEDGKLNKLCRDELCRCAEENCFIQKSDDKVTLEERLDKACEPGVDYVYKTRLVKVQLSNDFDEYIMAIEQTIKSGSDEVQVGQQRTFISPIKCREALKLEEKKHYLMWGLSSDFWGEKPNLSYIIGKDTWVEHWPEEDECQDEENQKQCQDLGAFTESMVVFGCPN

Sequence of C3 (P01024 23-1663): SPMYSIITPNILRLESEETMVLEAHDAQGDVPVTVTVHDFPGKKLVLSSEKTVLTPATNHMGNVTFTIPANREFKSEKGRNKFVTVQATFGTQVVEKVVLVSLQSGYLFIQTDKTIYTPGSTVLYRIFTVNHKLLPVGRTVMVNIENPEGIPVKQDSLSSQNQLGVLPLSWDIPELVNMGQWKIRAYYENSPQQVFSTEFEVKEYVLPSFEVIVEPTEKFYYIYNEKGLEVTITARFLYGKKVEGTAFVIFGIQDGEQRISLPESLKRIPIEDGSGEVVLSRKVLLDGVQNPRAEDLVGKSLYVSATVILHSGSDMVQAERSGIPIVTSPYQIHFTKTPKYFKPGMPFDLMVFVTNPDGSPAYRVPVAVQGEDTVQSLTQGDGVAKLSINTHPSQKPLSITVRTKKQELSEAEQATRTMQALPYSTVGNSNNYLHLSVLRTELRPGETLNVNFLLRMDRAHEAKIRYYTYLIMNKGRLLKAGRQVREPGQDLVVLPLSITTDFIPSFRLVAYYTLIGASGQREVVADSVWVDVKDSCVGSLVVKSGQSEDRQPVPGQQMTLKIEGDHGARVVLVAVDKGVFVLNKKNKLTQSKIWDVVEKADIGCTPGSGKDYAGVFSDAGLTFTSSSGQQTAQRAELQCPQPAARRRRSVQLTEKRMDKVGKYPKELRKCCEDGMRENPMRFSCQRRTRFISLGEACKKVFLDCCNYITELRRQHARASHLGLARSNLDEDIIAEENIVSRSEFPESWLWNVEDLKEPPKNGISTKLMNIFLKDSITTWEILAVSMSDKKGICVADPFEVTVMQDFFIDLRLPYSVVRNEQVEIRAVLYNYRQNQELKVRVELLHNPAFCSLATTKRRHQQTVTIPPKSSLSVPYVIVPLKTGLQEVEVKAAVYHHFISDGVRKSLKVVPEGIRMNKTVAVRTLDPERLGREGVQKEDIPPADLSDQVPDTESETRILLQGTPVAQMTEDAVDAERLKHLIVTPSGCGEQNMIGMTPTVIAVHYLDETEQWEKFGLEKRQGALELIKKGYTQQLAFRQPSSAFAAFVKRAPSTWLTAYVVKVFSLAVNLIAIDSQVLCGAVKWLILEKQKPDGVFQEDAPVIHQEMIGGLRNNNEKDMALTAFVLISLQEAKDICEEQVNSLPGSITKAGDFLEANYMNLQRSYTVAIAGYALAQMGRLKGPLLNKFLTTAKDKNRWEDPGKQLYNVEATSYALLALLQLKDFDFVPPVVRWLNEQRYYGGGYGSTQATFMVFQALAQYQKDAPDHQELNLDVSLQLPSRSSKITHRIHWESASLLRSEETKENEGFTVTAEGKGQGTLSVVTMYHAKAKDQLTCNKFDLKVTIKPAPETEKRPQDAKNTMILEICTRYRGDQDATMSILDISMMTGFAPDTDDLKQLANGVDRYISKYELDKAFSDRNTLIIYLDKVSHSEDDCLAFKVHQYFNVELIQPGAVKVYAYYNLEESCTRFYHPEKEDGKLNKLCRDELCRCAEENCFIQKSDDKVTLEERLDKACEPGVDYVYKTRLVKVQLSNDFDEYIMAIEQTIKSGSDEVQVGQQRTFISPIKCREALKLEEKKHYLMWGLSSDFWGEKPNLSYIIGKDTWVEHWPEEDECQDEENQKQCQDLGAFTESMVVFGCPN
Sequence of C3b (P01024 23-667, chain 1 of 2): as the sequence (P01024 23-667, chain 1 of 3) above
Sequence of C3b (P01024 749-1663, chain 2 of 2): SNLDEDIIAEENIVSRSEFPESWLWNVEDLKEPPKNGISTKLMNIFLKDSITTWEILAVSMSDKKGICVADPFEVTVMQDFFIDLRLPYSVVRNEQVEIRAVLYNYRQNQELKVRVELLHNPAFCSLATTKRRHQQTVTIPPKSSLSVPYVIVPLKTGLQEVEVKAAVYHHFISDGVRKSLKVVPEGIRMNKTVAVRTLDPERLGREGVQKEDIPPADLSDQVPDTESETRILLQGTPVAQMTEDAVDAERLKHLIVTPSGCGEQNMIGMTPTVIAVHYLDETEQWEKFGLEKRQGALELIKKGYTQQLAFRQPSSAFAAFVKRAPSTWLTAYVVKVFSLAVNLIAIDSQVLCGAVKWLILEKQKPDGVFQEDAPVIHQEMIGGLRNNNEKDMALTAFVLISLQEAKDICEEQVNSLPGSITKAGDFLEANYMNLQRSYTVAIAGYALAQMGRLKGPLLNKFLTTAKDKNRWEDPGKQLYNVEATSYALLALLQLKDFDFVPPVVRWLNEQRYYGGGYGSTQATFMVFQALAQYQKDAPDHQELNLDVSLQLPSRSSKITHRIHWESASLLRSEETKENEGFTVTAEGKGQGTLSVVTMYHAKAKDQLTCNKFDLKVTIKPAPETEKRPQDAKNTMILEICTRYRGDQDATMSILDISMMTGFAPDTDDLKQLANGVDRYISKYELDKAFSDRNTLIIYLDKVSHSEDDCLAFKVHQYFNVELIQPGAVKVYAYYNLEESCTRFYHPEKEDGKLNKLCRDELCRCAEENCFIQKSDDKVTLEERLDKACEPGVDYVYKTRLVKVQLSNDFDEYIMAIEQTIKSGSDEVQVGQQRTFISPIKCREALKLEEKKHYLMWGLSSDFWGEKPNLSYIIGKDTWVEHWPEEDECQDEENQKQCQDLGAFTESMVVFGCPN

Binder | Kd (C3b) [nM] | Kd (C3) [nM] | Kd (C3c) [nM]
Vector KPT/KMR protein C3i(N15Q)-Fc4-C3i(N15Q) (protein) MEFGLSWLFLVAILKGVQCDKGICVWQDWGAHRCTQGGGGSGGGGSGGGGSDKRV[sequence of human IgG4 Fc with S228P (EU numbers) omitted]GGGGSGGGGSGGGGSGGGGSGICVWQDWGAHRCTQ | 0.96 | 5.67 | 0.382
Vector KKA protein C3i(N15Q)-Fc4-Endostatin (protein) MEFGLSWLFLVAILKGVQCDKGICVWQDWGAHRCTQGGGGSGGGGSGGGGSDKRV[sequence of human IgG4 Fc with S228P (EU numbers) omitted]GGGGSGGGGSGGGGSGGGGSHSHRDFQPVLHLVALNSPLSGGMRGIRGADFQCFQQARAVGLAGTFRAFLSSRLQDLYSIVRRADRAAVPIVNLKDELLFPSWEALFSGSEGPLKPGARIFSFDGKDVLRHPTWPQKSVWHGSDPNGRRLTESYCETWRTEAPSATGQASSLLGGRLLGQSAASCHHAYIVLCIENSFMTASK | 9.2 | 2.31 | 8.62
Vector GGE protein (DK)C3i-Fc4-CNP36 (protein) MEFGLSWLFLVAILKGVQCDKGICVWQDWGAHRCTNGGGGSGGGGSGGGGSDKRV[sequence of human IgG4 Fc with S228P (EU numbers) omitted]GGGGSGGGGSGGGGSGGGGSEHPNARKYKGANKKGLSKGCFGLKLDRIGSMSGLGC | 12.7 | 48.9 | 7.97
Vector KKT protein C3i(N15Q)-Fc4-CNP36 (protein) MEFGLSWLFLVAILKGVQCDKGICVWQDWGAHRCTQGGGGSGGGGSGGGGSDKRV[sequence of human IgG4 Fc with S228P (EU numbers) omitted]GGGGSGGGGSGGGGSGGGGSEHPNARKYKGANKKGLSKGCFGLKLDRIGSMSGLGC | 9.63 | 4.71 | 10.8
Vector KPC protein C3i(N15Q)-Fc4 (protein) MEFGLSWLFLVAILKGVQCDKGICVWQDWGAHRCTQGGGGSGGGGSGGGGSDKRV[sequence of human IgG4 Fc with S228P (EU numbers) omitted] | 42.9 | 1.37 | 53.5
Vector GGG protein Fc4-C3i (protein) MEFGLSWLFLVAILKGVQCDKRV[sequence of human IgG4 Fc with S228P (EU numbers) omitted]GGGGSGGGGSGGGGSGGGGSGICVWQDWGAHRCTN | 810 | 25.4 | 424
Vector KAG protein Fc4-C3i(N15Q) (protein) MEFGLSWLFLVAILKGVQCDKRV[sequence of human IgG4 Fc with S228P (EU numbers) omitted]GGGGSGGGGSGGGGSGGGGSGICVWQDWGAHRCTQ | 125 | 50.3 | 121

— patent US20260297165 (published 2026)
